PubChem BioAssay AID485344 (National Center for Advancing Translational Sciences (NCATS), 2010)
In all, about 340,000 compounds went through this assay and about 6,900 (2%) were called active. Rule as the data show it: active = inhibition above about 30%; inactive = below that, where a call was filed. This is a selection; strong and weak results do not stand in their true shares. The source gives no active or inactive call for entries shown without one.

target: D(2) dopamine receptor (Homo sapiens) (UniProt P14416); test: HTS Assay for Allosteric Antagonists of the Human D2 Dopamine Receptor: Primary Screen for Antagonists; conditions: HEK293 TREx D2 cells, calcium flux, dopamine EC80; at 10 µM; stronger effect = higher value; also: 0% is about no effect
Summary of the method: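 HEK293 T-REx D2 cells, tet-induced, calcium dye no-wash. Cpd pintool add, 180 s kinetic, then EC80 DA, 180 s kinetic. Ca flux read.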

UniProt P14416, sequence (P14416 whole entry, looked up): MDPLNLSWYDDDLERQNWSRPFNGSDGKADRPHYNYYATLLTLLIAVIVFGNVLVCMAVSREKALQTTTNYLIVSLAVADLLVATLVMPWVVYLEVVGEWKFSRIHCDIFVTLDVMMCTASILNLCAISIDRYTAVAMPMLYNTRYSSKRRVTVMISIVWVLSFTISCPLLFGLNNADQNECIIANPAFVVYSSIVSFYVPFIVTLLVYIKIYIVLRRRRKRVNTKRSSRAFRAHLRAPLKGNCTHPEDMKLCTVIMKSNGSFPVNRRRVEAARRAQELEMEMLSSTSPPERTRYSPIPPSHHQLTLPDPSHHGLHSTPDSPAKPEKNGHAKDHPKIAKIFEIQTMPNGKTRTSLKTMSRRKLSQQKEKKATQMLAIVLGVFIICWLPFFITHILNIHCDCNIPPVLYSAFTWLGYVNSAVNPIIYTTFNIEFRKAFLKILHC

Structure (SMILES) | inhibition
COc1ccccc1Nc1c2c(nc3ccc(NC(=O)c4ccc(OC)c(OC)c4)cc13)CCCC2 | -3.88%
Cc1ccc(-n2ncc(C(=O)NCc3ccccc3)c2C2CCN(C(=O)OC(C)(C)C)CC2)cc1 | 3.73%
Cc1cc(Nc2cccc(Cl)c2)nc2ccc(NC(=O)Cc3ccc(Cl)cc3)cc12 | -11.5%
COc1cc(N2C(=O)CSC23C(=O)N(Cc2cccc(F)c2)c2ccccc23)cc(OC)c1OC (stereo not given) | 0.667%
CCOC(=O)Cn1c(=O)n(CC2CCCO2)c2nc(-c3ccc(OCC)cc3)nc(C(N)=O)c21 (stereo not given) | -2.39%
CCN(CC)CCNC(=O)CN1C(=O)COc2ccc(S(=O)(=O)N3CCOCC3)cc21 | -13%
COc1cc(NC(=O)c2nn(C)c3c2CS(=O)(=O)c2ccccc2-3)cc(OC)c1 | -1.28%
O=C(Nc1ccc2nc3n(c(=O)c2c1)CCCCC3)C(=O)Nc1ccccc1F | 2.02%
CCc1ccc(Cn2c(CNS(=O)(=O)c3ccc([N+](=O)[O-])cc3)nc3cccnc32)cc1 | -13.4%
Cc1cccc(Nc2nn3c(=O)c4cc5c(cc4nc3s2)OCO5)c1 | 1.26%
Cc1ccc(C(=O)NCc2ccc3c(c2)CCN3C(=O)c2ccc(C)cc2)cc1 | -24.2%
COCCNC(=O)c1ccc(-n2c(-c3ccccc3)cc3c2CCC(C)C3)cc1 (stereo not given) | -5.07%
CCn1nc(C)c(CCN(C)C(=O)Nc2ccc(C)c(Cl)c2)c1C | 4.01%
CCCN1CCN(CCCNC(=O)c2cc3c(=O)[nH]c4ccc(C)cc4c3s2)CC1 | active: 42.6%
CCOC(=O)c1cc(-c2ccc(OC)c(S(=O)(=O)NC3CCCCC3)c2)on1 | -1.68%
CCC(C)(C)NC(=O)CN(Cc1ccc2c(c1)OCO2)C(=O)CCC(=O)Nc1cc(C)ccn1 | active: 42.2%
CCN(C(=O)Cn1nc(Cc2ccncc2)c2ccccc2c1=O)c1cccc(Cl)c1 | -1.34%
COc1ccc(CCNC(=O)CN2C(=O)COc3ccc(C)cc32)cc1OC | 7.46%
COc1ccccc1N(CC(=O)N1CCC(C)CC1)S(=O)(=O)c1ccc(C)cc1 | 15.8%
CC(C)c1ccc(S(=O)(=O)N2CCC(N3CCN(Cc4ccccc4)C(=O)C3=O)CC2)cc1 | 0.699%
CCc1cccc(NC(=O)CN(C)S(=O)(=O)c2ccc3c(c2)CCCN3C(C)=O)c1 | 4.66%
COc1ccccc1-c1noc(-c2ccc(NCC3CCCO3)c([N+](=O)[O-])c2)n1 (stereo not given) | 20.2%
Cc1cc(C)c(S(=O)(=O)NCC(c2ccc(N(C)C)cc2)N2CCOCC2)c(C)c1 (stereo not given) | -3.77%
Cc1ccc2oc(=O)n(CCCOc3ccccc3Cl)c2c1 | 6.02%

Structure (SMILES) | inhibition
CC(CCc1ccccc1)NC(=O)Cn1c(=O)nc(-c2ccccc2)c2ccccc21 (stereo not given) | 6.08%
Cc1ccccc1Nc1c(-c2cccnc2)nc2ccc(Cl)cn12 | 3.69%
CCc1nn2c(=O)c(S(=O)(=O)Nc3ccc(Cl)cc3)c(C)nc2s1 | -14.3%
COc1ccc(C2=C(Nc3ccc(C)cc3C)c3ccccc3C2=O)cc1 | -2.08%
CCOc1ccc(CNCc2c(C(=O)O)c(C)n(Cc3c(F)cccc3Cl)c2C)cc1OC | -1.95%
C=CCn1c(COc2ccc(F)cc2)nnc1SC(C)C(=O)NCC1CCCO1 (stereo not given) | active: 61.3%
Cc1ccc(-c2cn3c(n2)sc2cc(C(=O)NCCCc4ccccc4)ccc23)c(C)c1 | 2.67%
CCCCN(CCCNC(=O)c1cc(Nc2ccc(OC)c(OC)c2)nc2ccccc12)c1ccccc1 | 10.7%
CC1CCCN(S(=O)(=O)c2ccc3c(c2)c(=O)nc2ccccn23)C1 (stereo not given) | 7.54%
COc1ccccc1NC(=O)C1=C(C)Nc2nc3ccccc3n2C1c1cccc(OC)c1OC (stereo not given) | 4.04%
Cc1ccn2c(=O)cc(COc3cccc(NC(=O)Nc4cccc(Cl)c4C)c3)nc2c1 | -13.5%
Cc1ccc(CNC(=O)c2ccc(CS(=O)Cc3cccc(Cl)c3)o2)cc1 (stereo not given) | 0.31%
COc1ccc(-c2cc(C(F)(F)F)nc(SCC(=O)NCC(C)C)n2)cc1OC | 3.72%
COc1cc(C(C)=O)ccc1OCC(O)CN1CCN(c2ccccn2)CC1 (stereo not given) | active: 93.3%
Cc1cc(Nc2cccc(C(F)(F)F)c2)nc2ccc(NC(=O)c3cccc(Cl)c3)cc12 | 8.33%
COc1ccc(NC(C)=O)cc1NC(=O)CN1CCN(c2ccc(F)cc2)CC1 | 9.5%
O=S(=O)(c1cccc2ccccc12)N1CCN(c2ccc(Cl)c(Cl)c2)CC1 | 10.1%
O=C(CSc1nc(-c2ccc(F)cc2)[nH]c1-c1ccc(F)cc1)Nc1ccc2c(c1)OCO2 | -22.9%
O=C(Cc1ccc(-c2ccccc2)cc1)NCCS(=O)(=O)N1CCN(c2ccccc2)CC1 | -12%
COc1cc(NC(=O)CSc2ccc(-c3ccccn3)nn2)cc(OC)c1 | 12.5%
CCOC(=O)c1nc(Nc2ccccc2CC)c2ccccc2n1 | active: 33.3%
O=C(CCn1ccc2cc(S(=O)(=O)N3CCCC3)ccc21)NCc1ccccc1Br | 12.8%
COc1ccc(C)cc1Nc1cc(C)nc(C)n1 | 8.77%
O=C(CN1C(=O)c2cccnc2Oc2ccc(Cl)cc21)Nc1cccc(C(F)(F)F)c1 | -19.5%

Structure (SMILES) | inhibition
CC(C)Oc1ccc(C(=O)Nc2c(C(=O)Nc3cccc(F)c3)oc3ccccc23)cc1 | -25.4%
CC(=O)Nc1cccc(-n2cc3c(c2-c2ccccc2Cl)c(=O)n(C)c(=O)n3C)c1 | 13.6%
CCC(C(=O)N1CCN(c2ccccc2)CC1)n1c(C)c2cnn(-c3ccccc3)c(=O)c2c1C (stereo not given) | 14.1%
Cc1nnc(N2CCC(C(=O)NCCC(C)C)CC2)c2nn(-c3ccc(Cl)cc3)c(C)c12 | 12.9%
CCOc1cc(Cl)c(S(=O)(=O)n2ccnc2)cc1Cl | -5.49%
O=C(CN1CCN(c2ncccn2)CC1)NCc1ccc2c(c1)OCO2 | active: 37.1%
CCN(CC)c1ccc(NC(=O)CCCN2C(=O)C(c3ccccc3)Oc3cccnc32)c(C)c1 (stereo not given) | -1.54%
O=C(NC1CCCC1)c1ccc2c(=O)n(Cc3ccccc3)c(SCc3cccc(F)c3)nc2c1 | 8.85%
COC(=O)c1ccc(NC(=O)CN2C(=O)CC(c3ccccc3)Sc3ccccc32)cc1 (stereo not given) | 7.34%
C=C(C)CSc1nc(-c2ccccc2)cc(-c2ccc(OC)cc2)c1C#N | 6.96%
Cc1cc(C)n(C(C)CC(=O)Nc2ccc(C)c(N(C)C)c2)n1 (stereo not given) | -7.89%
Fc1ccccc1N1CCN(c2nc3ccccc3c3nc(-c4ccccc4)nn23)CC1 | 12.1%
CSc1ccc(-c2nnc(NC(=O)c3ccc4c(c3)OCCO4)o2)cc1 | -9.56%
CCc1nc2nc(C)cc(Nc3cccc(C)c3C)n2n1 | -0.0522%
Cc1cccc(C2CC(=O)Nc3cc4c(cc32)OCO4)c1 (stereo not given) | 13%
CCc1ccc(NC(=O)CN2C(=O)C3(SCC(=O)N3c3ccc(F)c(F)c3)c3ccccc32)cc1 (stereo not given) | -4.85%
COc1ccc(CNC(=O)CCc2c(C)c3cc4c(C)c(C)oc4cc3oc2=O)cc1OC | -8.37%
CC(C)c1ccc(OCC(=O)N(Cc2cccs2)C2CCS(=O)(=O)C2)cc1 (stereo not given) | -7.07%
CCOc1ccc(NC(=O)/C(C#N)=C\c2ccc(-c3ccc(Cl)cc3)o2)cc1 | -4.16%
Cc1c(Cl)cccc1NC(=O)CCS(=O)(=O)c1ccc2c(c1)CC(=O)N2C | -3.16%
O=C(CSc1n[nH]c(-c2ccc(F)cc2)n1)NCCc1ccccc1 | 2.67%
Cc1cc(N2CCC(N(C)C3CCCC3)CC2)nc2cc(O)ccc12 | active: 47.8%
CCN(CC)CCNC(=O)c1c2c(nc3ccccc13)C(=O)N(C1CCCCC1)C2 | 1.65%
Cc1ccc(S(=O)(=O)NCCc2cn3ccsc3n2)c(C)c1 | 4.43%

Structure (SMILES) | inhibition
Cc1ccccc1NC(=O)Cn1c(=O)n(Cc2ccc3c(c2)OCO3)c(=O)c2ccccc21 | -0.794%
COc1cccc(NC(=O)Cn2cc(C(=O)c3ccc(C)cc3)c(=O)c3cc(OC)ccc32)c1 | -7.48%
COc1ccc(NC(=O)c2oc3ccccc3c2NC(=O)Cc2coc3c(C)c(C)ccc23)cc1 | -5.31%
COc1ccccc1-c1cc(C(=O)NCc2ccccc2)c2c(-c3ccc(C)cc3)[nH]nc2n1 | 14.2%
Cc1cc(NC(=O)CCC(=O)N(CCC(C)C)C(C(=O)NC2CCCC2)c2ccccc2C)no1 (stereo not given) | active: 51.5%
COc1ccc(-c2nc3cc(NC(=O)CSc4ccc(C)cc4)ccc3o2)cc1 | -0.431%
CCc1ccc(NC(=O)Cn2ccn(-c3ccc(C)c(C)c3)c(=O)c2=O)cc1 | -12.3%
Cc1ccc(S(=O)(=O)c2nc(S(=O)(=O)c3ccccc3)sc2NCCCOC(C)C)cc1 | 10.7%
Cc1cccc(-c2nc3scc(CCNS(=O)(=O)c4ccc5c(c4)OCCO5)n3n2)c1 | 9.48%
Cc1cccn2c(=O)c(C(=O)NCc3cccc(F)c3)cnc12 | 8.05%
CC1CCc2cc(F)ccc2N1C(=O)C12CCC(C)(C(=O)O1)C2(C)C (stereo not given) | active: 32%
CCOc1ccc(CNC(=O)Cc2ccc(NC(=O)N3CCSc4ncccc43)cc2)cc1 | -1.61%
Cc1ccc(Cl)cc1Nc1nn2c(=O)c3ccc(C(=O)NCc4ccc(F)cc4)cc3nc2s1 | 9.29%
CCCOc1ccc(-c2nc(SCC(=O)c3ccc(Cl)cc3)n[nH]2)cc1 | -12.7%
Cn1c(=O)c2sccc2n2c(CCC(=O)NCc3ccc(Cl)cc3)nnc12 | 6.85%
CC(=O)c1ccc(N2CCN(C(=O)C3CCN(S(=O)(=O)c4cn(C)cn4)CC3)CC2)cc1 | 17.2%
CCOC(=O)N1CCc2c(sc3c2c(=O)n(-c2ccc(Cl)cc2)c(=O)n3CC(C)C)C1 | 12.4%
COc1ccc(Nc2c(-c3cccc(O)c3)nc3cnccn23)cc1 | -8.55%
CCOC(=O)c1c(Nc2ccc(OC)cc2)nnc(-c2ccccc2)c1-c1ccccc1 | -0.395%
CCOc1ccc(NC(=O)COc2ccc(S(=O)(=O)NC3CCCCC3)cc2)cc1 | -5.21%
CN1CCN(c2ncc3c(n2)CCN(Cc2ccc(Br)s2)C3)CC1 | -18.8%
COc1ccc(-c2csc(=Nc3ccccc3)n2CCO)cc1F | -3.36%
COc1ccccc1N1CCN(CCN(C(=O)C2CCCCC2)c2ccccn2)CC1 | active: 70.3%
